Results: US20210380701A1 (IGM BIOSCIENCES, published 2021)
One block for each binder: values may come before it.

Target: PD-1 (full-length PD-1 receptor with a small beta-gal fragment fused to its C-terminus, stably expressed on … (UniProt Q15116))
Assay: cell-based or functional assay

- EC50 in PD-1 Reporter Assay: 0.013 nM
B1: PD-L1-IgM, hexameric (transfected without J-chain) (Fc fusion)
chain: [omitted - about 200 residues]IAELPPKVSVFVPPRDGFFGNPRKSKLICQATGFSPRQIQVSWLREGKQVGSGVTTDQVQAEAKESGPTTYKVTSTLTIKESDWLSQSMFTCRVDHRGLTFQQNASSMCVPDQDTAIRVFAIPPSFASIFLTKSTKLTCLVTDLTTYDSVTISWTRQNGEAVKTHTNISESHPNATFSAVGEASICEDDWNSGERFTCTVTHTDLASSLKQTISRPKGVALHRPDVYLLPPAREQLNLRESATITCLVTGFSPADVFVQWMQRGQPLSPEKYVTSAPMPEPQAPGRYFAHSILTVSEEEWNTGETYTCVVAHEALPNRVTERTVDKSTGKPTLYNVSLVMSDTAGTCY

- EC50 in PD-1 Reporter Assay: 0.016 nM
B2: PD-L1-H-IgM, hexameric (transfected without J-chain) (Fc fusion)
chain: [omitted - about 200 residues]EPKSSDKTHTCPPCPAPDQDTAIRVFAIPPSFASIFLTKSTKLTCLVTDLTTYDSVTISWTRQNGEAVKTHTNISESHPNATFSAVGEASICEDDWNSGERFTCTVTHTDLASSLKQTISRPKGVALHRPDVYLLPPAREQLNLRESATITCLVTGFSPADVFVQWMQRGQPLSPEKYVTSAPMPEPQAPGRYFAHSILTVSEEEWNTGETYTCVVAHEALPNRVTERTVDKSTGKPTLYNVSLVMSDTAGTCY
